Whole data set: some 16,000 sequences, median “Z-score” near -0.37, cut for the highest 2% near 3.2. Some of the results follow.
tested on: RBM10 RRM1-ZnF (GST-tagged construct); assay: RNAcompete 7-mer binding Z-score; higher = stronger binding preference
Summary of the method: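 GST-tagged RBM10 constructs (20 pmol) and a designed pool of 241 399 RNAs up to 41 nt (1.5 nmol) were allowed to bind for 30 min at 4°C in 1 ml Hepes pH 7.8 buffer with glutathione Sepharose beads. After four 2-min washes at 4°C, bound RNA was identified by microarray hybridisation. Enrichment was scored per heptamer motif as a one-sided Z-score across the probes containing it.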

Row | Sequence | RNAcompete 7-mer binding Z-score
1 | CCGUGGC | -0.035
2 | AGAGAAG | 1.63
3 | GGGUGGG | 4.82
4 | CAUCAUG | -0.532
5 | UCGGCAC | -0.503
6 | UCACUCU | -0.73
7 | UGGCCCC | 0.16
8 | CCAACUA | -0.568
9 | GAUCUAA | -0.344
10 | UUCGUAU | -0.681
11 | AUAUCAG | -0.288
12 | GGCUCGG | 0.664
13 | GGAGCGG | 4.52
14 | CACUCAU | -0.821
15 | GAGAAGC | 0.524
16 | UCGCAGU | -0.253
17 | AAAACUC | -0.724
18 | GCGGUAG | 1.51
19 | GCUACAU | -0.503
20 | GGGCACG | 2.26
21 | GAACUAC | -0.493
22 | UCGGUCU | -0.662
23 | UCUGUCA | -0.717
24 | ACACGAA | -0.503

Row | Sequence | RNAcompete 7-mer binding Z-score
25 | AUUGUAC | -0.467
26 | CGGCAUU | -0.373
27 | GAUUGGC | 0.953
28 | UGUUACC | -0.626
29 | UCGACCA | -0.681
30 | UAAGUGU | 0.124
31 | CCAGAUU | -0.717
32 | UCUACAC | -0.691
33 | UCAGCCC | -0.73
34 | GAGUCAC | 0.00729
35 | CACCAGC | -0.571
36 | UACGCAU | -0.448
37 | AAUUCUA | -0.662
38 | AAGCUUC | -0.746
39 | ACUCGCU | -0.662
40 | CUUCUUA | -0.672
41 | CUUGCUC | -0.685
42 | UAGCCUG | -0.655
43 | UACUACG | -0.532
44 | GACGAAA | 0.228
45 | UAAGUUU | -0.558
46 | GAUUCUG | -0.565
47 | CGCAGGG | 1.8
48 | UUAGACA | -0.305

Row | Sequence | RNAcompete 7-mer binding Z-score
49 | AGGUAGA | 2.42
50 | UAAUACC | -0.681
51 | GAGUAAA | 0.566
52 | UCAGGGC | 0.966
53 | CUUAACA | -0.727
54 | CUUGAGU | -0.629
55 | AGAGUUC | -0.399
56 | UUAGAGG | 1.31
57 | UGAAUAG | 0.387
58 | UCUGUUU | -0.617
59 | GAAAGCA | 0.527
60 | GGGCGCC | 0.339
61 | GCACCGG | 0.54
62 | CCCUCUG | -0.6
63 | UUCUUGC | -0.889
64 | AGUUGCG | 0.17
65 | GCGUACG | 0.228
66 | AAUGCGC | -0.428
67 | CGUGGUA | 0.823
68 | GAAAGGU | 4.51
69 | CCUGCUC | -0.808
70 | AGGAGGG | 3.53
71 | GCCCUAU | -0.867
72 | CAUCUAA | -0.737

Row | Sequence | RNAcompete 7-mer binding Z-score
73 | CUACACC | -0.558
74 | CUACCUA | -0.659
75 | GUGCGCA | 0.215
76 | GAUCCUA | -0.717
77 | GUGAAUU | 0.121
78 | CCGACUA | -0.613
79 | GGGUGAU | 3.22
80 | AGGAAAG | 2.84
81 | CGCACCA | -0.652
82 | GGUACAA | 1.25
83 | AUGGGUG | 4.03
84 | GGGAUCG | 1.97
85 | GUCUCAG | -0.457
86 | AGGAAGU | 1.06
87 | CAAAGCC | -0.863
88 | CCCUUGA | -0.837
89 | UUUUCAC | -0.88
90 | AGAGUUG | 0.768
91 | CAGUGUA | 0.0495
92 | CAUCACG | -0.47
93 | AUAGUUA | -0.321
94 | AAAUACC | -0.795
95 | AGUUAGC | -0.181
96 | CCGUCAA | -0.607

Row | Sequence | RNAcompete 7-mer binding Z-score
97 | CUGGAGG | 0.988
98 | CGGCACA | 0.0495
99 | UAGCUCU | -0.477
100 | AAUCCGG | -0.314
101 | UCCUUAG | -0.785
102 | GCGUAGU | 0.082
103 | GGCUUUU | -0.535
104 | ACUGCGC | -0.594
105 | GGGUCGC | 1.14
106 | GCUAGAC | -0.305
107 | CAAUUCG | -0.591
108 | GAAACCA | -0.272
109 | AGGUACG | 0.751
110 | CCAAGUG | -0.259
111 | CACAAAC | -0.626
112 | AUGAUAC | -0.217
113 | CGCCCGA | -0.698
114 | CACCCAU | -0.72
115 | UGACCUU | -0.854
116 | GAGUAGU | 0.68
117 | ACGUACG | 0.0593
118 | AUCUUAU | -0.863
119 | GUUUUCC | -0.681
120 | CGGGUUG | 2.79

Row | Sequence | RNAcompete 7-mer binding Z-score
121 | CAUCUGA | -0.756
122 | AGACUUU | -0.873
123 | GUAGCAC | -0.0252
124 | ACUUAGG | 0.257
125 | CGCUACG | -0.266
126 | ACUCCCG | -0.594
127 | GGGACUG | 2.47
128 | GCUUUAA | -0.672
129 | GUAUACC | -0.282
130 | CACGAAA | -0.454
131 | UUCUACU | -0.951
132 | GAUAUAA | 0.095
133 | GUUAUAA | -0.266
134 | CGUCGCU | -0.61
135 | GUAUUGG | 1.87
136 | AACGUCA | -0.574
137 | UUAUCUG | -0.587
138 | UCACCCG | -0.633
139 | UCAGUGU | -0.24
140 | CUUAUGU | -0.763
141 | CGGCACC | -0.334
142 | CGAAGCA | -0.227
143 | GUUGUGA | 0.524
144 | UGUGUUA | -0.409

Row | Sequence | RNAcompete 7-mer binding Z-score
145 | GAAGCGA | 1.27
146 | AUCGGGA | 1.64
147 | GAUACAC | -0.327
148 | CCCACCG | -0.305
149 | UAUGAAG | 0.176
150 | CUAUAUA | -0.617
151 | AACCGUA | -0.808
152 | AUCGAUC | -0.552
153 | GUGCAGG | 2.06
154 | ACUAACA | -0.584
155 | UUUACAU | -0.701
156 | GACUCCG | -0.555
157 | AUUUUAG | -0.617
158 | UUAGAAG | 0.283
159 | GGGGGAG | 3.22
160 | GACCUUU | -1.03
161 | UACUGAC | -0.428
162 | GUGAGAA | 1.13
163 | GAGAAUG | 1.61
164 | AGUUAGU | -0.0642
165 | UGGUAGC | 1.3
166 | AGCGGCG | 1.33
167 | UUGGAUU | 0.0885
168 | GGUACGU | 0.716

Row | Sequence | RNAcompete 7-mer binding Z-score
169 | AUCCAGA | -0.535
170 | AAACACG | -0.37
171 | ACAGAGU | 0.248
172 | ACAAUUU | -0.772
173 | UUAGCCU | -0.896
174 | UCAUUGC | -0.847
175 | ACCCGAG | -0.389
176 | UUCAACU | -0.847
177 | CACAGCU | -0.532
178 | UGCUACC | -0.604
179 | CAGGAAG | 1.72
180 | AAUUGUU | -0.435
181 | ACAUUGC | -0.72
182 | UCUUUAA | -0.847
183 | ACCAUAG | -0.724
184 | CGUGGCU | -0.171
185 | AUCCUAG | -0.698
186 | CGAUUGG | 0.949
187 | AUGCAGC | -0.106
188 | AUCCAAA | -0.857
189 | ACCUAGA | -0.503
190 | CGCCCAA | -0.685
191 | GGUAUCU | 0.000789
192 | CGGCCUG | -0.23

Row | Sequence | RNAcompete 7-mer binding Z-score
193 | CGCGUUG | -0.214
194 | AGCUGUG | 0.3
195 | AAGUCCU | -0.652
196 | GCAAUGC | -0.357
197 | AGGUAGG | 3.53
198 | ACUCCUC | -0.75
199 | AUGGAGC | 1.55
200 | AGAUCCA | -0.688
201 | CAUAAGG | 0.335
202 | UUUGAUC | -0.743
203 | UCGUGAG | 0.251
204 | ACUGUAA | -0.49
205 | AGCCGAG | -0.256
206 | AGUGAUU | 0.000789
207 | AACAGUG | 0.332
208 | UAUAAAA | -0.535
209 | GAGCCCG | -0.422
210 | UUUUCGC | -0.909
211 | CCUAGGU | 0.03
212 | GCAUGCG | 0.0138
213 | CGCGACA | -0.509
214 | ACUGAGA | -0.214
215 | ACUCUUC | -0.909
216 | UAUCCCU | -0.863

Row | Sequence | RNAcompete 7-mer binding Z-score
217 | UUAAAAG | -0.233
218 | AUAUUCU | -0.74
219 | AUCUGGC | -0.724
220 | GGAUACG | 1.91
221 | AAAUGUU | -0.321
222 | CCCGAAC | -0.545
223 | CCGUCCG | -0.542
224 | GUCAGAU | -0.197
225 | UAACCAG | -0.386
226 | AUCUCCC | -0.802
227 | GCAUACA | -0.126
228 | UGGCAUG | 0.904
229 | UUGGCAC | -0.249
230 | GUUGUUA | 0.0755
231 | UCUGCGG | -0.136
232 | AGCCGGA | 0.095
233 | UAUCCAG | -0.665
234 | AACGCGC | -0.366
